Assay results as given in the supplement of paper PMC8728848.
Some of the results follow.

Assays:
Assay in all cases: glycan array binding signal (z-score within array); higher = stronger binding
Settings in all cases: glycan notation: IUPAC condensed, linker removed
[1] = target: GlcNAc(a1-4)Gal(b1-3)GlcNAc
How it was run: (§1)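 Columns mapping to the same glycan were averaged after glycan names were converted to IUPAC-condensed notation. The data come from 3228 arrays in the Consortium for Functional Glycomics database, limited to those with an available protein sequence. Binding is reported as a within-array Z-score averaged across arrays of one protein sequence and across linkers.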

[2] = target: GlcNAc(a1-4)Gal(b1-4)GalNAc
How it was run: as §1

[3] = target: GlcNAc(a1-4)Gal(b1-4)GlcNAc
How it was run: as §1

[4] = target: GlcNAc(a1-4)Gal(b1-4)GlcNAc(b1-3)Gal(b1-4)Glc
How it was run: as §1

[5] = target: GlcNAc(a1-4)Gal(b1-4)GlcNAc(b1-3)Gal(b1-4)GlcNAc
How it was run: as §1

[6] = target: GlcNAc(a1-4)Gal(b1-4)GlcNAc(b1-3)Gal(b1-4)GlcNAc(b1-3)Gal(b1-4)GlcNAc
How it was run: as §1

[7] = target: GlcNAc(a1-4)Gal(b1-4)GlcNAc(b1-3)Gal(b1-4)[Fuc(a1-3)]GlcNAc(b1-3)Gal(b1-4)[Fuc(a1-3)]GlcNAc
How it was run: as §1

[8] = target: GlcNAc(a1-6)Gal(b1-4)GlcNAc
How it was run: as §1

[9] = target: GlcNAc(b1-2)Gal(b1-3)GalNAc
How it was run: as §1

[10] = target: GlcNAc(b1-2)Man(a1-3)[GlcNAc(b1-2)Man(a1-6)]Man(b1-4)GlcNAc(b1-4)GlcNAc
How it was run: as §1

[11] = target: GlcNAc(b1-2)Man(a1-3)[GlcNAc(b1-2)Man(a1-6)]Man(b1-4)GlcNAc(b1-4)[Fuc(a1-6)]GlcNAc
How it was run: as §1

[12] = target: GlcNAc(b1-2)Man(a1-3)[GlcNAc(b1-4)][GlcNAc(b1-2)Man(a1-6)]Man(b1-4)GlcNAc(b1-4)GlcNAc
How it was run: as §1

[13] = target: GlcNAc(b1-2)Man(a1-3)[GlcNAc(b1-4)][GlcNAc(b1-2)Man(a1-6)]Man(b1-4)GlcNAc(b1-4)[Fuc(a1-6)]GlcNAc
How it was run: as §1

[14] = target: GlcNAc(b1-2)[GlcNAc(b1-4)]Man(a1-3)[GlcNAc(b1-2)Man(a1-6)]Man(b1-4)GlcNAc(b1-4)GlcNAc
How it was run: as §1

[15] = target: GlcNAc(b1-2)[GlcNAc(b1-4)]Man(a1-3)[GlcNAc(b1-4)][GlcNAc(b1-2)Man(a1-6)]Man(b1-4)GlcNAc(b1-4)GlcNAc
How it was run: as §1

[16] = target: GlcNAc(b1-2)[GlcNAc(b1-4)]Man(a1-3)[GlcNAc(b1-4)][GlcNAc(b1-2)[GlcNAc(b1-6)]Man(a1-6)]Man(b1-4)GlcNAc(b1-4)GlcNAc
How it was run: as §1

[17] = target: GlcNAc(b1-2)[GlcNAc(b1-4)]Man(a1-3)[GlcNAc(b1-4)][GlcNAc(b1-2)[GlcNAc(b1-6)]Man(a1-6)]Man(b1-4)GlcNAc(b1-4)[Fuc(a1-6)]GlcNAc
How it was run: as §1

[18] = target: GlcNAc(b1-2)[GlcNAc(b1-6)]Man(a1-6)[GlcNAc(b1-2)Man(a1-3)]Man(b1-4)GlcNAc(b1-4)GlcNAc
How it was run: as §1

[19] = target: GlcNAc(b1-2)[GlcNAc(b1-6)]Man(a1-6)[GlcNAc(b1-2)Man(a1-3)]Man(b1-4)GlcNAc(b1-4)[Fuc(a1-6)]GlcNAc
How it was run: as §1

[20] = target: GlcNAc(b1-2)[GlcNAc(b1-6)]Man(a1-6)[GlcNAc(b1-4)][GlcNAc(b1-2)Man(a1-3)]Man(b1-4)GlcNAc(b1-4)GlcNAc
How it was run: as §1

GlcNAc(b1-3)Fuc = target: GlcNAc(b1-3)Fuc
How it was run: as §1

GlcNAc(b1-3)Gal = target: GlcNAc(b1-3)Gal
How it was run: as §1

[21] = target: GlcNAc(b1-3)Gal(b1-3)GalNAc
How it was run: as §1

GlcNAc(b1-3)Gal(b1-4)Glc = target: GlcNAc(b1-3)Gal(b1-4)Glc
How it was run: as §1

[22] = target: GlcNAc(b1-3)Gal(b1-4)GlcNAc
How it was run: as §1

[23] = target: GlcNAc(b1-3)Gal(b1-4)GlcNAc(b1-2)Man(a1-3)[GlcNAc(b1-3)Gal(b1-4)GlcNAc(b1-2)Man(a1-6)]Man(b1-4)GlcNAc(b1-4)GlcNAc
How it was run: as §1

[24] = target: GlcNAc(b1-3)Gal(b1-4)GlcNAc(b1-2)Man(a1-3)[GlcNAc(b1-3)Gal(b1-4)GlcNAc(b1-2)Man(a1-6)]Man(b1-4)GlcNAc(b1-4)[Fuc(a1-6)]GlcNAc
How it was run: as §1

[25] = target: GlcNAc(b1-3)Gal(b1-4)GlcNAc(b1-2)[GlcNAc(b1-3)Gal(b1-4)GlcNAc(b1-6)]Man(a1-6)[GlcNAc(b1-3)Gal(b1-4)GlcNAc(b1-2)Man(a1-3)]Man(b1-4)GlcNAc(b1-4)GlcNAc
How it was run: as §1

[26] = target: GlcNAc(b1-3)Gal(b1-4)GlcNAc(b1-3)Gal(b1-4)GlcNAc
How it was run: as §1

[27] = target: GlcNAc(b1-3)Gal(b1-4)GlcNAc(b1-3)Gal(b1-4)GlcNAc(b1-2)Man(a1-3)[GlcNAc(b1-3)Gal(b1-4)GlcNAc(b1-3)Gal(b1-4)GlcNAc(b1-2)Man(a1-6)]Man(b1-4)GlcNAc(b1-4)GlcNAc
How it was run: as §1

[28] = target: GlcNAc(b1-3)Gal(b1-4)GlcNAc(b1-3)Gal(b1-4)GlcNAc(b1-2)Man(a1-3)[GlcNAc(b1-3)Gal(b1-4)GlcNAc(b1-3)Gal(b1-4)GlcNAc(b1-2)Man(a1-6)]Man(b1-4)GlcNAc(b1-4)[Fuc(a1-6)]GlcNAc
How it was run: as §1

[29] = target: GlcNAc(b1-3)Gal(b1-4)GlcNAc(b1-3)Gal(b1-4)GlcNAc(b1-2)[GlcNAc(b1-3)Gal(b1-4)GlcNAc(b1-3)Gal(b1-4)GlcNAc(b1-6)]Man(a1-6)[GlcNAc(b1-3)Gal(b1-4)GlcNAc(b1-3)Gal(b1-4)GlcNAc(b1-2)Man(a1-3)]Man(b1-4)GlcNAc(b1-4)[Fuc(a1-6)]GlcNAc
How it was run: as §1

[30] = target: GlcNAc(b1-3)Gal(b1-4)GlcNAc(b1-3)Gal(b1-4)GlcNAc(b1-3)Gal(b1-4)GlcNAc(b1-2)Man(a1-3)[GlcNAc(b1-3)Gal(b1-4)GlcNAc(b1-3)Gal(b1-4)GlcNAc(b1-3)Gal(b1-4)GlcNAc(b1-2)Man(a1-6)]Man(b1-4)GlcNAc(b1-4)GlcNAc
How it was run: as §1

[31] = target: GlcNAc(b1-3)Gal(b1-4)GlcNAc(b1-3)Gal(b1-4)GlcNAc(b1-3)Gal(b1-4)GlcNAc(b1-2)Man(a1-3)[GlcNAc(b1-3)Gal(b1-4)GlcNAc(b1-3)Gal(b1-4)GlcNAc(b1-3)Gal(b1-4)GlcNAc(b1-2)Man(a1-6)]Man(b1-4)GlcNAc(b1-4)[Fuc(a1-6)]GlcNAc
How it was run: as §1

[32] = target: GlcNAc(b1-3)Gal(b1-4)GlcNAc(b1-3)Gal(b1-4)GlcNAc(b1-3)Gal(b1-4)GlcNAc(b1-2)[GlcNAc(b1-3)Gal(b1-4)GlcNAc(b1-3)Gal(b1-4)GlcNAc(b1-3)Gal(b1-4)GlcNAc(b1-6)]Man(a1-6)[GlcNAc(b1-3)Gal(b1-4)GlcNAc(b1-3)Gal(b1-4)GlcNAc(b1-3)Gal(b1-4)GlcNAc(b1-2)Man(a1-3)]Man(b1-4)GlcNAc(b1-4)[Fuc(a1-6)]GlcNAc
How it was run: as §1

[33] = target: GlcNAc(b1-3)Gal(b1-4)GlcNAc(b1-3)Gal(b1-4)GlcNAc(b1-3)Gal(b1-4)GlcNAc(b1-3)Gal(b1-4)GlcNAc(b1-2)Man(a1-3)[GlcNAc(b1-3)Gal(b1-4)GlcNAc(b1-3)Gal(b1-4)GlcNAc(b1-3)Gal(b1-4)GlcNAc(b1-3)Gal(b1-4)GlcNAc(b1-2)Man(a1-6)]Man(b1-4)GlcNAc(b1-4)GlcNAc
How it was run: as §1

[34] = target: GlcNAc(b1-3)Gal(b1-4)GlcNAc(b1-3)Gal(b1-4)GlcNAc(b1-3)Gal(b1-4)GlcNAc(b1-3)Gal(b1-4)GlcNAc(b1-2)Man(a1-3)[GlcNAc(b1-3)Gal(b1-4)GlcNAc(b1-3)Gal(b1-4)GlcNAc(b1-3)Gal(b1-4)GlcNAc(b1-3)Gal(b1-4)GlcNAc(b1-2)Man(a1-6)]Man(b1-4)GlcNAc(b1-4)[Fuc(a1-6)]GlcNAc
How it was run: as §1

[35] = target: GlcNAc(b1-3)Gal(b1-4)GlcNAc(b1-3)Gal(b1-4)GlcNAc(b1-3)Gal(b1-4)GlcNAc(b1-3)Gal(b1-4)GlcNAc(b1-2)[GlcNAc(b1-3)Gal(b1-4)GlcNAc(b1-3)Gal(b1-4)GlcNAc(b1-3)Gal(b1-4)GlcNAc(b1-3)Gal(b1-4)GlcNAc(b1-6)]Man(a1-6)[GlcNAc(b1-3)Gal(b1-4)GlcNAc(b1-3)Gal(b1-4)GlcNAc(b1-3)Gal(b1-4)GlcNAc(b1-3)Gal(b1-4)GlcNAc(b1-2)Man(a1-3)]Man(b1-4)GlcNAc(b1-4)[Fuc(a1-6)]GlcNAc
How it was run: as §1

B1: SP16664D-bth-476-27-476 (Bacteroides thetaiotaomicron) (protein)
chain: DDLEVGKNIDESAYSGIYENNAYLRDGKSNLVSKVVELHGETYATTVKMGLSKTPNTATSAKVKIDAAYLETYNKAHNTDFALYPQDLVTFANEGILTVNANTKSAEVEMTIRAGEGLQEDKTYAIPVAISDQSSDITIKDEDAKHCIYLVKDMRNAGDAYKGEGVMQGYLFFEVNDVNPLNTLSFQLENGKLLWDVVVLFAANINYDAEAGRPRVQCNPNVQYLLDNNETLLQPLRRRGVKVLLGLLGNHDITGLAQLSEQGAKDFAREVAQYCKAYNLDGVNYDDEYSNSPDLSNPSLTNPSTAAAARLCYETKQAMPDKLVTVFDWGQMYGVATVDGVDAKEWIDIVVANYGSAAYPIGQMTKKQCSGISMEFNLGGGGSLSASKAQSMIDGGYGWFMGFAPSPAKYGSVFSRLQGGGEVLYGSNVAAPTIFYKKNDPTPYKYPDDL
glycan array binding signal (z-score) [1]: -0.198
glycan array binding signal (z-score) [2]: -0.053
glycan array binding signal (z-score) [3]: 0.104
glycan array binding signal (z-score) [4]: -0.337
glycan array binding signal (z-score) [5]: -0.259
glycan array binding signal (z-score) [6]: -0.185
glycan array binding signal (z-score) [7]: 1.01
glycan array binding signal (z-score) [8]: -0.207
glycan array binding signal (z-score) [9]: -0.173
glycan array binding signal (z-score) [10]: -0.399
glycan array binding signal (z-score) [11]: -0.181
glycan array binding signal (z-score) [12]: 0.108
glycan array binding signal (z-score) [13]: -0.044
glycan array binding signal (z-score) [14]: -0.216
glycan array binding signal (z-score) [15]: -0.339
glycan array binding signal (z-score) [16]: 0.433
glycan array binding signal (z-score) [17]: -0.089
glycan array binding signal (z-score) [18]: 0.031
glycan array binding signal (z-score) [19]: 0.076
glycan array binding signal (z-score) [20]: -0.137
glycan array binding signal (z-score) (GlcNAc(b1-3)Fuc): 0.007
glycan array binding signal (z-score) (GlcNAc(b1-3)Gal): -0.2
glycan array binding signal (z-score) [21]: -0.156
glycan array binding signal (z-score) (GlcNAc(b1-3)Gal(b1-4)Glc): -0.066
glycan array binding signal (z-score) [22]: -0.253
glycan array binding signal (z-score) [23]: -0.223
glycan array binding signal (z-score) [24]: 0.073
glycan array binding signal (z-score) [25]: 0.087
glycan array binding signal (z-score) [26]: 0.054
glycan array binding signal (z-score) [27]: 0.328
glycan array binding signal (z-score) [28]: 0.137
glycan array binding signal (z-score) [29]: 0.65
glycan array binding signal (z-score) [30]: 0.341
glycan array binding signal (z-score) [31]: -0.18
glycan array binding signal (z-score) [32]: 0.373
glycan array binding signal (z-score) [33]: -0.126
glycan array binding signal (z-score) [34]: -0.399
glycan array binding signal (z-score) [35]: -0.136
